In patent US20260062452A1 (CYTIVA BIOPROCESS R AND D, published 2026):

B1: SEQ ID NO:208 (Group 2 Fc knock-out variant of SEQ ID NO:193) (designed binder)
chain: VDAKFNKEAYRALAEIARLPNLTEEQRAGFIQSLRDDPSTSKSILKEAKKLNKAQAPK
B2: SEQ ID NO:204 (Group 2 Fc knock-out variant of SEQ ID NO:189) (designed binder)
chain: B1 chain with V1A, A3N, D37E, T40V, S43E, K46A, K53D
B3: SEQ ID NO:217 (Group 3 Fc knock-out variant of SEQ ID NO:189) (designed binder)
chain: ADNKFNKEAYRALAEIARLPNLTEESRAGFIQSLRDEPSVSKEILAEAKKLNDAQAPK
B4: IgG binding polypeptide SEQ ID NO:186 (Group 1, before mutations) (designed binder)
chain: IAAQHDKDQQAAFYEILHLPNLTEEQRNAFIQSLRDDPSVSLEILAEAKKLNDAQAPK
B5: IgG binding polypeptide SEQ ID NO:188 (Group 1, before mutations) (designed binder)
chain: B4 chain with D36H
B6: IgG binding polypeptide SEQ ID NO:187 (Group 1, before mutations) (designed binder)
chain: B4 chain with D8E, Q9H, E25D, A46G
B7: IgG binding polypeptide SEQ ID NO:192 (Group 1, before mutations) (designed binder)
chain: VDAKFNKEQQNAFYEILNLPNLTEEQRNAFIQSLRDDPSQSANLLSEAKRLNESQAPG
B8: SEQ ID NO:203 (Group 2 Fc knock-out variant of SEQ ID NO:188) (designed binder)
chain: IAAQHDKDAYRALAEIARLPNLTEEQRAGFIQSLRHDPSVSLEILAEAKKLNDAQAPK
B9: SEQ ID NO:216 (Group 3 Fc knock-out variant of SEQ ID NO:188) (designed binder)
chain: B8 chain with Q26S
B10: IgG binding polypeptide SEQ ID NO:190 (Group 1, before mutations) (designed binder)
chain: ADSKFDEAQQSAFYEILHLPSLTEDQRAAFIQSLKDDPSTSKSLLGEAKKLNDAQAPP
B11: SEQ ID NO:205 (Group 2 Fc knock-out variant of SEQ ID NO:190) (designed binder)
chain: ADSKFDEAAYRALAEIARLPSLTEDQRAGFIQSLKDDPSTSKSLLGEAKKLNDAQAPP
B12: SEQ ID NO:218 (Group 3 Fc knock-out variant of SEQ ID NO:190) (designed binder)
chain: B11 chain with Q26S

Each binder was assayed against T1, trastuzumab Fab fragment (assay: SPR, polypeptide on CM5 chip, trastuzumab Fab as analyte).
T1 construct: also called Fab (VH-3); VH3/Fab
B1: no binding.

Biological target: T1, trastuzumab Fab fragment
Assay: as above
Remark: another data set of the same source
B2: no binding (tested: 500 nM).
B3: no binding (tested: 500 nM).
B4: no binding (tested: 500 nM).
B5: no binding (tested: 500 nM).
B6: no binding (tested: 500 nM).
B7: no binding (tested: 500 nM).
B8: no binding (tested: 500 nM).
B9: no binding (tested: 500 nM).
B10: no binding (tested: 500 nM).
B11: no binding (tested: 500 nM).
B12: no binding (tested: 500 nM).

Changes are numbered by the printed parent chain.
